{
  "source": "ChEMBL document CHEMBL1156829",
  "note": "The full ranking holds about 5,400 compounds; the median of “IFI” is about 2, and the highest 2% start at about 22. The list shows a part of the results.",
  "data": [
    {"assay": "NOVARTIS: Inhibition Frequency Index (IFI) - the number of HTS assays where a compound showed > 50% inhibition/induction, expressed as a percentage of the number of assays in which the compound was tested.", "assay_type": "functional", "units": {"IFI": "%"}, "values": [
      {"smiles": "CN1CCN(c2nc(NCCNc3ccc([N+](=O)[O-])cc3)c3ccccc3n2)CC1", "IFI": 19.1},
      {"smiles": "Cc1nc(-c2ccncc2)nc(NCCNc2ccc(C(F)(F)F)cn2)c1Cl", "IFI": 0},
      {"smiles": "CC1(C)CC(=O)C2=C(C1)NC(=O)CC2c1ccc(C(C)(C)C)cc1", "note": "(centres undefined)", "IFI": 9.09},
      {"smiles": "CCN1CCN(c2cc(C)c(C#N)c3nc4ccccc4n23)CC1", "IFI": 0},
      {"smiles": "COc1ccc([C@]23Oc4cc(OC)cc(OC)c4[C@@]2(O)[C@@H](O)C(C(=O)N(C)C)[C@@H]3c2ccccc2)cc1", "note": "(some centres undefined)", "IFI": 0},
      {"smiles": "COc1ccc(/C=C2\\SC(=Nc3ccc(F)cc3)NC2=O)c(OC)c1", "IFI": 0},
      {"smiles": "C[n+]1ccc(C2OC2c2ccccc2)c2ccccc21", "note": "(centres undefined)", "IFI": 0},
      {"smiles": "Cc1cc2c(cc1C)N(C(=O)c1ccccc1)C(C)(C)c1ssc(=S)c1-2", "IFI": 0},
      {"smiles": "CCOC(=O)CSc1nc2c(sc(=S)n2-c2ccc(Cl)c(C)c2)c(=O)n1-c1ccccc1OC", "IFI": 0},
      {"smiles": "O=C(Nc1ccc(Cl)cc1)N1CCN(c2ccc3nncn3n2)CC1", "IFI": 0},
      {"smiles": "CCOc1ccc(CN(CCC(c2ccccc2)c2ccccc2)C(=O)Nc2ccccc2C)cc1", "IFI": 0.926},
      {"smiles": "O=C(Nc1ccc(Cl)cc1Cl)c1ccc(-c2nc(-c3ccccc3Cl)cs2)cc1", "IFI": 6.67},
      {"smiles": "COC(=O)C1=C(C)N(c2ccc(N(C)C)cc2)C(C)=C(C(=O)OC)C1c1ccc(Br)cc1", "IFI": 0},
      {"smiles": "COc1ccc2[nH]cc(CCNC(=O)Oc3ccccc3)c2c1", "IFI": 0},
      {"smiles": "CCOC(=O)Cn1cnc2c(nnn2Cc2ccc(F)cc2)c1=O", "IFI": 0},
      {"smiles": "COc1ccc(CN(Cc2ccc(C(C)C)cc2)S(=O)(=O)c2ccc(S(=O)(=O)N3CCN(c4ccccc4F)CC3)cc2)cc1", "IFI": 1.04},
      {"smiles": "Cn1c(=O)c2c(nc3n(CCCO)c(C45CC6CC(CC(C6)C4)C5)cn23)n(C)c1=O", "IFI": 0},
      {"smiles": "CCC(C)NC(=O)c1cc(NC(=O)/C=C/c2ccc([N+](=O)[O-])cc2)ccc1N1CCN(c2ccccc2OC)CC1", "note": "(centres undefined)", "IFI": 2.75},
      {"smiles": "COC(=O)c1sc2nc(CN(C)CC(C)C)ccc2c1NC(=O)c1ccc(C)s1", "IFI": 0.962},
      {"smiles": "Cc1cccc(NC(c2cccc(Cl)c2)c2ccc3cccnc3c2O)n1", "note": "(centres undefined)", "IFI": 0},
      {"smiles": "CCOC(=O)c1ccc(NC2=C(N3CCCCC3)C(=O)c3ccccc3C2=O)cc1", "IFI": 0},
      {"smiles": "Cc1oc2c(c1C(=O)N1CCN(C)CC1)C(=O)c1ccccc1C2=O", "IFI": 10.8},
      {"smiles": "CC(=O)c1cc(CN2CCC(C(=O)Nc3ccc(-n4nc(C)cc4C)cc3)CC2)cs1", "IFI": 0},
      {"smiles": "COc1ccc(Nc2nc(NN=Cc3cc(Br)c(O)cc3O)nc(Nc3ccc([N+](=O)[O-])cc3)n2)cc1", "IFI": 13.9},
      {"smiles": "COc1ccc(/C=C2\\SC(=Nc3ccccc3)NC2=O)cc1", "IFI": 0},
      {"smiles": "CCCCSc1oc(C)nc1[P+](c1ccccc1)(c1ccccc1)c1ccccc1", "IFI": 22.2},
      {"smiles": "O=C(C1CC1)N1CCN=C1SCc1ccc(C(F)(F)F)cc1", "IFI": 0},
      {"smiles": "CN1CCCC1CCNc1ncc(C(=O)NCc2ccccc2)c(NC2CCCC2)n1", "note": "(centres undefined)", "IFI": 1.94},
      {"smiles": "Cc1cccc(C2c3[nH]c4ccccc4c3CCN2C(=O)CCCN2CCCCC2=O)n1", "note": "(centres undefined)", "IFI": 0},
      {"smiles": "COc1ccc(C2(CNCC(O)c3cccc([N+](=O)[O-])c3)CCCC2)cc1OC", "note": "(centres undefined)", "IFI": 0},
      {"smiles": "CCn1c2c(c(=N)c3ccccc31)CCC2", "IFI": 7.14},
      {"smiles": "CN1CCN(c2nc(NN=Cc3cccc(Cl)c3)nc(Nc3ccc([N+](=O)[O-])cc3)n2)CC1", "IFI": 5.2},
      {"smiles": "CC(C)(C)C(/C=C/c1ccc(Cl)cc1Cl)n1nnnc1C1(Nc2ccc(Cl)cc2)CCCCC1", "note": "(centres undefined)", "IFI": 0},
      {"smiles": "Cc1cc(Nc2cccc(F)c2)nc(NCc2ccccc2)n1", "IFI": 0},
      {"smiles": "O=C(c1cccc(Cl)c1)N1CCN(c2ccc([N+](=O)[O-])c(NC3CC3)c2)CC1", "IFI": 3.49},
      {"smiles": "O=C(Nc1ccc2c(c1)OCO2)c1cc2cc(C3(O)CCN(CC4CCCCC4)CC3)ccc2o1", "IFI": 4.24},
      {"smiles": "c1ccc(-c2cc(N3CCc4ccccc4C3)nc(-c3ccccn3)n2)nc1", "IFI": 7.69},
      {"smiles": "Cc1ccnc(NC(c2ccncc2)c2ccc3cccnc3c2O)c1", "note": "(centres undefined)", "IFI": 9.52},
      {"smiles": "COCCOC(=O)C1=C(C)NC2=C(C(=O)CC(c3ccc(OC)c(OC)c3)C2)C1c1cccc(Cl)c1Cl", "note": "(centres undefined)", "IFI": 2.35},
      {"smiles": "CN(C)CCCNc1ncnc2c1[nH]c1ccccc12", "IFI": 6},
      {"smiles": "OCCN1CCN(c2cc(-c3cccnc3)nc(-c3ccncc3)n2)CC1", "IFI": 0},
      {"smiles": "COc1cc(C(=O)Nc2c3c(nn2-c2cc(C)cc(C)c2)CSC3)cc(OC)c1OC", "IFI": 3.53},
      {"smiles": "CC12CCC(CN(CC(O)Cn3c4ccc(Br)cc4c4cc(Br)ccc43)C1)C2(C)C", "note": "(centres undefined)", "IFI": 1.39},
      {"smiles": "CCOC(=O)C1=C(C)NC2=C(C(=O)CCC2)C1c1cc(Br)c(O)c(OCC)c1", "note": "(centres undefined)", "IFI": 3.45},
      {"smiles": "CCC1(C)CC(CCNCc2ccccc2O)(c2ccccc2OC)CCO1", "note": "(centres undefined)", "IFI": 2.86},
      {"smiles": "CCc1ccc(C(=O)Oc2ccccc2-c2nc3cc(C)ccn3c2NC(C)(C)CC(C)(C)C)cc1", "IFI": 7.48},
      {"smiles": "CN[C@H]1C[C@@H]2O[C@](C)([C@H]1O)n1c3ccccc3c3c4c(c5c6ccccc6n2c5c31)C(=O)NC4", "IFI": 46.2},
      {"smiles": "C[n+]1c(/C=C/c2ccc(Cl)c(Cl)c2)ccc2ccccc21", "IFI": 2},
      {"smiles": "O=C1NCCN1CCNS(=O)(=O)c1cc(C(F)(F)F)cc(C(F)(F)F)c1", "IFI": 0.833}
    ]}
  ]
}
